Results on 48 compounds are retold here after PubChem BioAssay AID1508642 (National Center for Advancing Translational Sciences (NCATS), 2021).

Out of some 43,000 compounds screened, about 200 (0.47%) were called active. Another 12% or so got no clear call; they are omitted. The call rests on the fitted dose curve; in most records, active means well fitted cell-killing curve with a large enough effect; inconclusive means small, poorly fitted or top-dose-only effect, or effect the other way; inactive means flat fitted curve, though single readings scatter. The list shows a part of the results.
On the % scale 0 is the no-effect control and ±100 the full control effect.

This test in a line: Cell viability qHTS assay in S16 Pmp22-F2sN cells. Further: nearly all actives have a fitted effect of over 65% in size. To be noted: S16 Pmp22-F2sN Schwann cells (luciferase reporters placed in the Pmp22 gene) viability, CellTiter-Glo, 24 h; series mostly up to 57.5 µM; activity change, negative = cytotoxicity: at the top concentration. Put shortly:
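Seed 500-1,000 S16 Pmp22-F2sN cells per well in phenol-red-free DMEM with 10% heat-inactivated FBS; pin-add 23 nL compound; incubate 24 h at 37C; add CellTiter-Glo, wait 15 min protected from light; read luminescence.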
For `CCOC(=O)c1nnn(C(CC)C(=O)Nc2c(C)cccc2C)c1C(=O)OCC` (stereo not drawn), the “activity change, negative = cytotoxicity” value is inactive: -2.16%.

On to `CCNc1nc(Oc2ccc(OCC(=O)OC)nn2)nc(N2CCOCC2)n1`, for which the “activity change, negative = cytotoxicity” value was inactive: 13.2%.

Regarding `CCOc1ccc(-c2cccc(NS(=O)(=O)c3ccc(Cl)s3)c2)nn1`, the “activity change, negative = cytotoxicity” value is inactive: 6.86%.

For `CCOc1ccc2nc(N3CCCC(C(=O)NCc4ccc(OC)cc4)C3)sc2c1` (stereo not drawn), the “activity change, negative = cytotoxicity” value is inactive: 1.67%.

As to `Cc1ccc(NC(=O)N2CCN(c3nnc(C)c4c(C)n(-c5ccccc5)nc34)CC2)c(Cl)c1`, the “activity change, negative = cytotoxicity” value was inactive: 6.76%.

Consider `COc1ccc(CNC(=O)c2ccc(Sc3ccc(Cl)cc3)c(NC(C)=O)c2)c(OC)c1`, for which the “activity change, negative = cytotoxicity” value is inactive: -14.8%.

Take `Cc1ccc2c(c1)c1c(c(=O)n(-c3cccc(Cl)c3)c(=O)n1C)n2C`: the “activity change, negative = cytotoxicity” value is inactive: 6.7%.

For `COc1cc(OC)c(NC(=O)c2cnc(N3CCCC3)nc2C)cc1Cl`, the “activity change, negative = cytotoxicity” value is inactive: 9.01%.

As to `CCSc1ncc(Cl)c(C(=O)Nc2sc(C(C)=O)c(C)c2C(=O)OC)n1`, the “activity change, negative = cytotoxicity” value was inactive: -0.152%.

For the compound `CCOC(=O)c1c(NC(=O)c2cc3nc(-c4ccc(OC)cc4)cc(C(F)(F)F)n3n2)sc(C)c1C`, the “activity change, negative = cytotoxicity” value is inactive: -2.99%.

Regarding `CCc1cccc(NC(=O)c2c(C)oc3ncnc(N4CCCCC4)c23)c1`, the “activity change, negative = cytotoxicity” value was inactive: -0.583%.

`O=C1CN(C(=O)COc2ccc(Cl)cc2Cl)C(c2ccc(F)cc2)c2cc(F)ccc2N1` (stereo not drawn): the “activity change, negative = cytotoxicity” value was inactive: -18.2%.

For `COc1ccc(C(=O)c2oc3ccccc3c2NC(=O)c2nc(SC)ncc2Cl)cc1Cl`, the “activity change, negative = cytotoxicity” value is inactive: 1.22%.

Consider `CC(=O)c1cccc(Nc2c3c(nc4nc(-c5cccs5)nn24)CCCC3)c1`, for which the “activity change, negative = cytotoxicity” value was inactive: -17.1%.

For `COc1cc(C(c2c(C)[nH][nH]c2=O)c2c(C)[nH][nH]c2=O)ccc1OC(=O)c1ccccc1F`, the “activity change, negative = cytotoxicity” value is inactive: -2.19%.

With `Cc1ccc(CNC(=O)C2CCN(c3nc4ccc(C)cc4[nH]3)CC2)cc1`, the “activity change, negative = cytotoxicity” value is inactive: 4.87%.

As to `CC(=O)Nc1ccc(NC(=O)CSc2nnc3c4cc(Br)ccc4n(C)c3n2)cc1`, the “activity change, negative = cytotoxicity” value was inactive: 4.09%.

For the compound `CCCC(=O)Nc1cccc(-c2nc3cc(C)c(C)cc3o2)c1C`, the “activity change, negative = cytotoxicity” value was inactive: 12.6%.

As for `COC(=O)c1ccc2oc(=O)c(S(=O)(=O)c3ccc(C)cc3)cc2c1`, the “activity change, negative = cytotoxicity” value was inactive: 0.0607%.

Consider `O=C(COc1ccc(F)cc1)Nc1cccc(OCc2cc(=O)n3ccccc3n2)c1`, for which the “activity change, negative = cytotoxicity” value was inactive: -0.946%.

With `Cc1ccc(-n2nc(C)c3c(C)cc(=O)n(CC(=O)NCc4ccc(OC(C)C)cc4)c32)cc1`, the “activity change, negative = cytotoxicity” value was inactive: -5.03%.

In the case of `COc1ccc(Nc2ncc(C(=O)Nc3cc(C)ccc3OC)c3ccccc23)cc1`, the “activity change, negative = cytotoxicity” value was inactive: 17.3%.

For `FC(F)(F)c1ccc(C2=Nc3ccccc3NC(c3cccs3)=N2)cc1`, the “activity change, negative = cytotoxicity” value was inactive: -2.26%.

Take `Cc1ccc(NC(=O)c2ccc(=O)n(CC(=O)Nc3cc(C)cc(C)c3)n2)cc1`: the “activity change, negative = cytotoxicity” value was inactive: -0.889%.

With `Fc1ccc(-n2ncc3c(Nc4ccc(Oc5ccccc5)cc4)ncnc32)cc1`, the “activity change, negative = cytotoxicity” value is inactive: 5.67%.

Turning to `Cc1ccc(OCC(=O)Nc2c(Cl)ccc3nsnc23)cc1C`, the “activity change, negative = cytotoxicity” value was inactive: -0.14%.

Consider `Cc1ccc2c(c1)c1c(c(=O)n(-c3ccccc3C)c(=O)n1Cc1ccccc1F)n2C`, for which the “activity change, negative = cytotoxicity” value was inactive: 20.1%.

With `COc1ccc(NC(=O)CCc2c(C)nc3c(-c4ccccc4)c(C)nn3c2C)cc1Cl`, the “activity change, negative = cytotoxicity” value was inactive: 5.2%.

As for `Cn1c(C(=O)NCc2ccc(Cl)cc2)cc2c(=O)n(C)c3ccccc3c21`, the “activity change, negative = cytotoxicity” value is inactive: -0.954%.

`Cc1ccc(Cl)cc1NC(=O)Cn1c(=O)oc2cc(S(=O)(=O)N3CCCCCC3)ccc21`: the “activity change, negative = cytotoxicity” value is inactive: 5.34%.

As for `CCCc1cc(=O)[nH]c(SCc2nc(-c3ccc(OC)cc3)no2)n1`, the “activity change, negative = cytotoxicity” value was inactive: -0.774%.

Regarding `Cc1cc(C)cc(OCC(=O)NCC2(N3CCOCC3)CCCCC2)c1`, the “activity change, negative = cytotoxicity” value is inactive: -26.6%.

For `O=C(Cn1c(SCCOc2ccccc2Cl)nc2ccccc21)N1CCCCC1`, the “activity change, negative = cytotoxicity” value is inactive: 1.05%.

Turning to `O=C(C1CCN(c2ncnc3c2nc2n3CCCCC2)CC1)N1CCN(c2ccccc2)CC1`, the “activity change, negative = cytotoxicity” value is inactive: -25.7%.

Take `CCOC(=O)c1ccccc1NC(=O)c1sc2ncn(CC)c(=O)c2c1C`: the “activity change, negative = cytotoxicity” value was inactive: 1.62%.

Turning to `COc1ccc(CC(=O)NCCc2csc(-c3cccc(F)c3)n2)cc1OC`, the “activity change, negative = cytotoxicity” value was inactive: -0.227%.

For the compound `N#Cc1ccccc1Cn1c(=O)n(-c2ccc(F)c(Cl)c2)c(=O)c2sccc21`, the “activity change, negative = cytotoxicity” value was inactive: 8.6%.

`Cc1nc(-c2ccc(F)cc2)sc1CCNC(=O)C(=O)Nc1ccc2c(c1)OCO2`: the “activity change, negative = cytotoxicity” value was inactive: 11%.

Take `CCOC(=O)c1cccc(NC(=O)NCc2ccc3c(c2)CCN3C(=O)CC)c1`: the “activity change, negative = cytotoxicity” value is inactive: -0.21%.

Consider `CCCn1c2ccccc2c2cnn(CC(=O)NCCc3cc(OC)ccc3OC)c(=O)c21`, for which the “activity change, negative = cytotoxicity” value is inactive: 4.15%.

Turning to `Cc1ccc(CSc2ncccc2C(=O)O)cc1`, the “activity change, negative = cytotoxicity” value is inactive: -0.155%.

Take `COc1cccc(-c2nc(CS(=O)(=O)CC(=O)NCCCc3ccccc3)c(C)o2)c1`: the “activity change, negative = cytotoxicity” value was inactive: 2.78%.

Take `Cc1ccc(S(=O)(=O)N2CCCc3cc(NC(=O)c4ccc(C(C)(C)C)cc4)ccc32)cc1`: the “activity change, negative = cytotoxicity” value was inactive: -7.4%.

As for `CCc1ccc(C(=O)c2cn(CC(=O)Nc3ccc(OC)c(Cl)c3)c3nc(C)ccc3c2=O)cc1`, the “activity change, negative = cytotoxicity” value was inactive: -11.7%.

With `CCCN(C(=O)NCc1noc2ccc(C)cc12)c1ccc(Cl)c(Cl)c1`, the “activity change, negative = cytotoxicity” value is inactive: 7.44%.

Turning to `CC1=C(C(=O)Nc2cccc(C(F)(F)F)c2)C(c2ccccn2)n2ncnc2N1` (stereo not drawn), the “activity change, negative = cytotoxicity” value was inactive: 13.9%.

Take `CCC(=O)Nc1ccccc1-c1nc2ccccc2n(CC(=O)c2ccc(Br)cc2)c1=O`: the “activity change, negative = cytotoxicity” value is inactive: 12.7%.

Take `Cc1ccc(Cl)cc1NC(=O)Cn1cc(S(=O)(=O)Cc2ccccc2Cl)c2ccccc21`: the “activity change, negative = cytotoxicity” value was inactive: -10.3%.
